From PubChem BioAssay AID1159614 (National Center for Advancing Translational Sciences (NCATS), 2016)
Among all 45,000 compounds or so, about 65 (0.1%) were called active. Calls come from the whole dose curve; as a rule, active = well fitted activation curve with a large enough effect; inconclusive = small, poorly fitted or top-dose-only effect; inactive = no such curve, though single readings can be large or run the other way. Some of the results follow.

biological target: Galactocerebrosidase (Homo sapiens) (UniProt P54803); test: A Novel Cell-Based Assay to Identify Small Molecules for B -Galactocerebrosidase; details: 145M-Twi-hGALC-G270D cells (Twitcher mouse brain line with human GALC G270D), HMU-beta-Gal fluorescence, 48 h; series mostly up to 57.5 µM; activation: at the top concentration; note: 0% is about no effect; nearly all actives have a fitted effect of over 65% in size
Chain of UniProt P54803 (P54803 whole entry, looked up): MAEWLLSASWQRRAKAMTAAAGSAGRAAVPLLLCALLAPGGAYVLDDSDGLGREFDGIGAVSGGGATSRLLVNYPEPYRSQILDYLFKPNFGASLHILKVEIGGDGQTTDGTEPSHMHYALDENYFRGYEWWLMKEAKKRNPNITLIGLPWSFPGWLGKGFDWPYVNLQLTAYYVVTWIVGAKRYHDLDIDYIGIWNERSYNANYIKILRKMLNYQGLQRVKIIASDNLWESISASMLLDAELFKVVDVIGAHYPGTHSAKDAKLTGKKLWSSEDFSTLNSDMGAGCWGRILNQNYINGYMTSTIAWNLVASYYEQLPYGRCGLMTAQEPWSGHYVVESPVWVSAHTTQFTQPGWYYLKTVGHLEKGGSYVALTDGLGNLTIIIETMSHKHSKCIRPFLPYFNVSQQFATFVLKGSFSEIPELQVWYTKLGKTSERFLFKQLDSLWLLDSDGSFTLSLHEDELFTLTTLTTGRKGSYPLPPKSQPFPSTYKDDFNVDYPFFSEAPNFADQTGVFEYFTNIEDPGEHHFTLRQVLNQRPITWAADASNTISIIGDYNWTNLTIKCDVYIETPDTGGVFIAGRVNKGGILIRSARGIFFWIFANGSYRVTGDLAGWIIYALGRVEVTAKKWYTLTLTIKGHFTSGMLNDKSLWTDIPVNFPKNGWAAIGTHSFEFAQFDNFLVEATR
Summary of the method: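 Mutant human GALC (G270D), stably expressed in a Twitcher mouse brain cell line lacking endogenous GALC, is measured in live-treated cells via 6-hexadecanoylamino-4-methylumbelliferyl-β-galactoside hydrolysis (0.1 mM final, pH 5.2) with fluorescent detection.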

activation, inactive:
COc1ccc(NC(=O)Cn2c(=O)n(Cc3nc(C)no3)c(=O)c3cc4c(cc32)OCO4)cc1 -7.81%, Cc1ccccc1Cn1c(=O)n(CC2CCC(C(=O)N3CCC(C)CC3)CC2)c(=O)c2sccc21 (stereo not drawn) -17%, COc1ccccc1CNC(=O)CCCn1c(=O)c2ccccc2n(CC(=O)Nc2ccc(C)cc2Cl)c1=O -8%, CC(C)Cc1nn2c(=O)cc(COC(=O)c3cccc(NC(=O)c4cccs4)c3)nc2s1 -16.6%, COc1ccc(-c2nsc(NC(=O)COc3ccccc3OC)n2)cc1 -15.8%, Cc1c(Cl)cccc1NC(=O)CSc1nc(=O)n(Cc2ccncc2)c2c1CCC2 -12.3%, Cc1ccc(C(=O)COC(=O)CCCC(=O)Nc2cc(C(F)(F)F)ccc2Cl)cc1C 3.03%, COc1cccc(CNC(=O)CSc2cc(C)[nH]c(=O)n2)c1 -24.5%, CCc1nn(CCCN2CCN(c3cccc(Cl)c3)CC2)c(=O)n1CCOc1ccccc1 -13.6%, Cn1c(=O)n(Cc2ccccc2Cl)c(=O)c2c1nc1n2CCN1c1ccccc1 3.92%, CCn1ccc2cc(S(=O)(=O)N3CCCN(C(=O)Nc4ccc(C)cc4Cl)CC3)ccc21 4.11%, COc1cc2c(cc1OC)n(CC(=O)Nc1ccc(C)cc1C)c(=O)n1nc(-c3ccccc3)nc21 -12.9%, Cc1cc(Nc2ccccc2F)n2nc(Cc3ccc(Cl)cc3)nc2n1 -0.609%, Cc1oc(-c2ccc(C(=O)NCCCOC(C)C)cc2)nc1CS(=O)(=O)c1ccccc1 6.42%, COc1ccc(C(=O)NCc2ccc3c(c2)CCN3C(C)=O)cc1OC -3.33%, CC(=O)N1CCN(C(=O)C(=O)Nc2c3c(nn2-c2ccc(Cl)cc2)CSC3)CC1 -3.96%, COC(=O)c1ccc(C2c3c(-c4ccc(Br)cc4)n[nH]c3C(=O)N2c2ccc(Cl)cc2)cc1 (stereo not drawn) -7.93%, CC(C)c1ccc(Nc2cc(C(=O)NCCCN(C)Cc3ccccc3)c3ccccc3n2)cc1 -9.51%, Cc1cccc(NC(=O)CSc2ncc3c(n2)-c2cc(Cl)ccc2N(C)S3(=O)=O)c1C -15.8%, COc1ccc(-c2nnc(SCC(=O)N3CCCCC3)o2)cc1 -5.74%, CCOc1ccccc1-c1noc(CSc2nnc(-c3ccncc3)n2-c2ccc(F)cc2)n1 -14.5%, CC1CCN(C(=O)CN2c3ccc(Br)cc3-c3ccccc3S2(=O)=O)CC1 -3.99%, O=C(COc1ccccc1)Nc1c(C(=O)N2CCN(c3ccc(F)cc3)CC2)oc2ccccc12 -23.3%, CCc1ccc(OCC(=O)Nc2cc3oc4ccccc4c3cc2OC)c(Br)c1 -19.1%, CCOc1ccc2c(c1)c(=O)c(S(=O)(=O)c1ccc(CC)cc1)cn2CC -8.33%, CCOC(=O)c1ccc(NC(=O)c2c(NCc3cccc(OC)c3)sc3c2CCC3)cc1 -15.2%, Cc1ccccc1Nc1cc(C(=O)NC2CCC(C)CC2)c2ccccc2n1 (stereo not drawn) -15.1%, Cc1cccc(C)c1NC(=O)N1CCC(C(N)=O)(N2CCCCC2)CC1 -6.21%, O=C(Nc1ccc(F)cc1F)c1cc2ccc3cccnc3c2[nH]1 -14.1%, COc1ccc(-c2nc(Cn3c(SCc4cccc(F)c4)nc4cccnc43)c(C)o2)cc1 -3.88%, Cn1cc(S(=O)(=O)N2CCCCCC2)cc1C(=O)Nc1ccccc1F -3.98%, COc1ccc2oc(-c3ccc(C)c(NC(=O)c4sc5ccccc5c4Cl)c3)nc2c1 -21.3%, COc1cccc(C(=O)NCC(c2ccc(N(C)C)cc2)N2CCc3ccccc32)c1OC (stereo not drawn) -4.24%, COc1cccc(-n2c(-c3ccco3)nc3c(cnn3-c3ccccc3C)c2=O)c1 -7.64%, CC(C)c1ccc(C(=O)Nc2ccc(-c3nc4ccccc4s3)c(Cl)c2)cc1 -10.8%, CCCCN(CCCC)S(=O)(=O)c1ccc(C(=O)Nc2sc3c(c2C(N)=O)CCN(CC)C3)cc1 -17.2%, CCc1nc2ccccc2n1CCCCOc1ccc(Cl)cc1 2.78%, COc1cc(NC(=O)Cn2nc(Cc3cccnc3)c3ccccc3c2=O)cc(OC)c1OC -11.2%, Cc1cccc(OCC(=O)Nc2c(C(=O)N3CCN(c4ccccc4)CC3)oc3ccccc23)c1 -17.1%, COc1ccc(N2CCN(c3oc(-c4ccccc4C)nc3S(=O)(=O)c3ccccc3)CC2)cc1 -15.6%, CC1=C(C(=O)Nc2cccc(Cl)c2)C2(CCCCCC2)OC1=O 0.249%, Cc1nc2c([nH]1)c(=O)n(C)c(=O)n2Cc1ccco1 -7.17%, COc1ccccc1NC(=O)Cn1c(=O)n(CCc2ccccc2)c(=O)c2sc3ccccc3c21 2.11%, COc1cc(NC(=O)Cn2nc(C(F)(F)F)c3c2CCCC3)cc(OC)c1OC -7.62%, O=C(Nc1ccc(-c2cn3cccnc3n2)cc1)c1ccccc1F -3.51%, Cc1ccc(OCc2ccc(-c3nc(C#N)c(N4CCN(c5cccc(Cl)c5)CC4)o3)o2)cc1 -11.6%, Cc1cccc(CSc2nc3ccncc3n2Cc2ccc(C(=O)O)cc2)c1 -3.68%, CCOc1ccccc1CNC(=O)CCCn1nc(C)c2sc3ccccc3c2c1=O -12.7%, CCN1CCN(c2cc(C)c3cc(NC(=O)c4cc(Br)ccc4Cl)ccc3n2)CC1 -22.7%, CCCC12CN3CC(C)(CN(C1)C3c1cn(CC)c3ccccc13)C2=O (stereo not drawn) -27.7%, CCC1CN(C(=O)N2CCC(C(=O)NCCCc3ccccc3)CC2)c2ccccc2O1 (stereo not drawn) -6.75%, CN(C)c1ccc(CNC(=O)Cn2c(=O)oc3cc(S(=O)(=O)NCc4ccccc4)ccc32)cc1 0.32%, COc1ccc(CNC(=O)c2ccc(CS(=O)(=O)c3ccc(OC)cc3)o2)cc1 -13.2%, Cc1nn(CCC(=O)N2CCN(c3ccccc3F)CC2)c(C)c1S(=O)(=O)N1CCCC1 -2.56%, COc1ccc(C(=O)Nc2cc3cc(Cl)ccc3oc2=O)cc1OC -0.354%, CCOC(=O)c1c(C)[nH]c(CCC(=O)Nc2ccccc2OCC)c1C -18.7%, COc1ccc2oc(=O)cc(CN3CCN(c4ccccc4OC)CC3)c2c1 -25.2%, COCCCNC(=O)CSc1nc(-c2ccc(OC)cc2)[nH]c1-c1ccc(OC)cc1 -9.4%, CC(=O)N1CCCc2cc(S(=O)(=O)N3CCC(C(=O)NCc4ccccc4Cl)CC3)ccc21 -16.7%, CCC(=O)N1c2ccccc2CC1C(=O)NCCN1CCN(c2cccc(Cl)c2)CC1 (stereo not drawn) -25.5%, O=C(NCc1ccccc1Cl)c1ccc2nc(Cc3ccccc3)oc2c1 -7.14%, Cc1ccc(-c2nc(C)c(CCNC(=O)C(=O)Nc3ccc(C)c(Cl)c3)s2)cc1 2.17%, CCOC(=O)c1cc(S(=O)(=O)NCc2ccc(F)cc2)[nH]n1 -17%, CC(=O)Nc1ccccc1OCc1cc(=O)n2c(C)csc2n1 -18.1%, CCC1(C)CC(=O)NC1=O (stereo not drawn) -14.9%, CC(=O)N1c2ccc(S(=O)(=O)NCc3ccc(Cl)cc3)cc2CC1C (stereo not drawn) 5.42%, COc1cccc(-c2nn(C)c3sc(C(=O)NCc4ccc(C)cc4)cc23)c1 -14.8%, CCN(CC)C(=O)c1sc2c(c1C)c(=O)n(-c1ccc(OC)cc1OC)c(=O)n2Cc1cc(C)ccc1C 7.69%, CCc1ccc(CNC(=O)Cn2nc(C)c3c(C)n(-c4ccc(C)cc4)nc3c2=O)cc1 -7.79%, CCC(CC)C(=O)Nc1cccc(-c2nc3ncccn3c2C)c1 -19.6%, CCN(CCCNC(=O)CSc1cc(=O)n(C)c2cc(Cl)ccc12)c1ccccc1 -33.9%, COc1ccc(CN(C)c2ccc(-c3nc(C)no3)cc2[N+](=O)[O-])cc1 -6.22%, Cc1ccc(NC(=O)CSc2ncc3c(n2)-c2ccccc2N(C)S3(=O)=O)c(Cl)c1 -6.71%, COc1ccc2nc(SCc3ncc(C)c(OC)c3C)[nH]c2c1 -13.8%, CN1CCN(CCNC(=O)c2cnn(-c3cccc(Cl)c3)c2C2CCN(C(=O)OC(C)(C)C)CC2)CC1 20.5%, Cc1cc(=O)n2nc(N3CCC(C(=O)NCc4ccccc4F)CC3)sc2n1 -13.9%, CC1N=C2c3ccccc3N=C(SCC(=O)NCc3ccc(Cl)cc3)N2C1=O (stereo not drawn) -11.2%, COCCCNC(=O)c1sc2nc(C)c(C(=O)Nc3ccc(Cl)cc3)c(-c3ccc(Br)cc3)c2c1N -8.27%, CCCNC(C)(C)COC(=O)c1ccccc1 6.07%, CCN(CC)c1nn2c(=O)c(C(=O)NCc3cccc(OC)c3OC)cnc2s1 -11.5%, COc1cccc(NC(=O)CSc2cc(C)[nH]c(=O)n2)c1 -13.5%, COc1ccc(CNC(=O)c2cnn(-c3ccc(OC)cc3)c2C2CCN(C(=O)OC(C)(C)C)CC2)cc1 -21.2%, Cc1c2cnn(-c3ccccc3)c(=O)c2c(C)n1CC(=O)N1CCN(c2cccc(Cl)c2)CC1 -17.4%, Cc1nc(SCC(=O)Nc2ccccc2Cl)cc(-c2ccccc2)n1 -12.2%, COc1cccc(-c2n[nH]c3c2C(c2cccc(O)c2)N(C)C3=O)c1 (stereo not drawn) -2.43%, CCS(=O)(=O)N1CC(=O)N(c2cccc(C)c2C)C(C)(C(=O)NC2CCCCCC2)C1 (stereo not drawn) 7.01%, Cc1c(C(=O)N(C)c2ccccc2)sc2nc(-c3ccc(F)cc3)cn12 -9.3%, O=C(Nc1cccc2cccnc12)c1cccc2c(Br)cccc12 -19.2%, O=C1c2oc3ccccc3c(=O)c2C(c2ccccc2F)N1Cc1ccc2c(c1)OCO2 (stereo not drawn) -21%, CCc1cc2c(cc3c(=O)n(CC(=O)NC4CCC(C)CC4)nc(CC)n32)s1 (stereo not drawn) -3.88%, Cc1cccc2c1-c1sc(C(=O)Nc3ccccc3C(N)=O)cc1CO2 -8.43%, CCC(=O)Nc1cc(-c2nc3cc(C)cc(C)c3o2)ccc1C 18.1%, Cc1ccccc1OCC(=O)NCC(c1ccc(Cl)cc1)N1CCOCC1 (stereo not drawn) -1.84%, O=C(Nc1ccc(Br)cc1F)c1ccc2nc(CCc3ccccc3)oc2c1 -10.4%, CN(C(=O)CSc1cn(CC(=O)N2CCCC2)c2ccccc12)c1ccccc1 -9.9%, O=C1c2[nH]nc(-c3ccccc3O)c2C(c2cccc(Br)c2)N1Cc1ccncc1 (stereo not drawn) -6.84%, Cc1ccc2onc(CNC(=O)N(C)Cc3ccccc3)c2c1 -15.8%, COc1ccc(-n2c(Cc3ccccc3)nnc2SCc2nc(-c3ccccc3C)no2)cc1 -15.2%
